# The other results are listed elsewhere or left out. Sequences were assembled here from the parent chain. Inactive controls read about 0.05.
# B1: TEV protease; numbered along this chain (parent)
# chain: MGESLFKGPRDYNPISSSICHLTNESDGHTTSLYGIGFGPFIITNKHLFRRNNGTLVVQSLHGVFKVKDTTTLQQHLVDGRDMIIIRMPKDFPPFPQKLKFREPQREERICLVTTNFQTKSMSSMVSDTSCTFPSGDGIFWKHWIQTKDGQCGSPLVSTRDGFIVGIHSASNFTNTNNYFTSVPKNFMELLTNQEAQQWVSGWRLNADSVLWGGHKVFMVKPEEPFQPVKEATQL
# Variants of: B1
# Test: raw area under fraction-flipped curve 0-4 h after induction (AUC4h, not background-subtracted), DNA-recorder readout of cleavage of the substrate (dimensionless); higher = more cleavage of the substrate by the protease variant
# Settings: temperature: 34 °C; time window: 0-4 h after rhamnose induction
# Method: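 In vivo DNA recorder in E. coli TOP10(DE3) ΔrhaA at 34 °C. Each TEVp single-site mutant (parent TEVp 0) is paired with a single-site variant of the 7-mer TEVs (canonical ENLYFQ|S). The substrate sits between flexible linkers in a Bxb1-sfGFP-TEVs-SsrA fusion, so cleavage stabilises Bxb1 and speeds flipping of a recombination array, read by NGS. The value is the raw area under the fraction-flipped curve over 0-4 h after rhamnose induction (AUC4h), with ≥20 reads per time point. It is not background-subtracted; inactive controls average about 0.047.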
# 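Also: Bxb1 expression induced with 0.2% (w/v) L-rhamnose at OD600 near 0.5, cultures sampled hourly, flipped fraction per protease–substrate barcode pair counted by paired-end Illumina sequencing.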
Variant,area with substrate ENLAFQS,area with substrate ENLDFQS,area with substrate ENLEFQS,area with substrate ENLFFQS,area with substrate ENLHFQS,area with substrate ENLIFQS,area with substrate ENLKFQS,area with substrate ENLLFQS,area with substrate ENLNFQS,area with substrate ENLQFQS,area with substrate ENLRFQS,area with substrate ENLSFQS,area with substrate ENLVFQS,area with substrate ENLWFQS,area with substrate ENLCFQS,area with substrate ENLGFQS,area with substrate ENLPFQS,area with substrate ENLTFQS,area with substrate ENLMFQS
P104L,0.0537,0.0551,0.0508,0.0435,0.0497,0.067,0.0513,0.0596,0.0649,0.036,0.0605,0.0497,0.053,0.0511,,,,,
P134H,0.0643,0.0635,0.0568,0.071,0.0589,0.0683,0.0563,0.0651,0.0599,0.056,0.0664,0.0554,,0.0529,0.0682,0.0651,0.0571,0.0542,
K120F,0.0424,0.0696,0.0202,0.078,0.0567,0.0883,0.0631,0.0555,0.0522,0.074,0.0803,0.0677,,,,0.0512,0.0624,0.0616,0.0601
K120W,0.0616,0.0465,0.0642,0.078,0.0674,0.0623,0.0598,0.0686,0.103,,,0.0646,0.123,0.0657,0.0627,,,,0.0718
K120Y,0.0646,0.0578,0.0859,0.0397,0.0483,0.0843,0.057,0.0564,0.0565,,,0.0625,0.0703,0.034,0.0644,,,,0.0657
K120H,0.0648,0.0622,,0.0891,0.074,,0.0768,,,0.0716,0.0801,0.0711,0.099,0.0706,0.0476,,,,
